# According to publication PMC4336329 (PLoS ONE, 2015):
# Screen size: about 310,000 compounds; about 2,200 (0.71%) showed an effect of 50% or more. Effects have a minus sign here. This is one part of the list.
# Molecular target: human ether-à-go-go-related gene (hERG) potassium channel (human, UniProt Q12809)
# Assay: primary screen, population patch clamp on CHO cells stably expressing hERG
# Sequence of human ether-à-go-go-related gene (hERG) potassium channel (Q12809 whole entry, looked up): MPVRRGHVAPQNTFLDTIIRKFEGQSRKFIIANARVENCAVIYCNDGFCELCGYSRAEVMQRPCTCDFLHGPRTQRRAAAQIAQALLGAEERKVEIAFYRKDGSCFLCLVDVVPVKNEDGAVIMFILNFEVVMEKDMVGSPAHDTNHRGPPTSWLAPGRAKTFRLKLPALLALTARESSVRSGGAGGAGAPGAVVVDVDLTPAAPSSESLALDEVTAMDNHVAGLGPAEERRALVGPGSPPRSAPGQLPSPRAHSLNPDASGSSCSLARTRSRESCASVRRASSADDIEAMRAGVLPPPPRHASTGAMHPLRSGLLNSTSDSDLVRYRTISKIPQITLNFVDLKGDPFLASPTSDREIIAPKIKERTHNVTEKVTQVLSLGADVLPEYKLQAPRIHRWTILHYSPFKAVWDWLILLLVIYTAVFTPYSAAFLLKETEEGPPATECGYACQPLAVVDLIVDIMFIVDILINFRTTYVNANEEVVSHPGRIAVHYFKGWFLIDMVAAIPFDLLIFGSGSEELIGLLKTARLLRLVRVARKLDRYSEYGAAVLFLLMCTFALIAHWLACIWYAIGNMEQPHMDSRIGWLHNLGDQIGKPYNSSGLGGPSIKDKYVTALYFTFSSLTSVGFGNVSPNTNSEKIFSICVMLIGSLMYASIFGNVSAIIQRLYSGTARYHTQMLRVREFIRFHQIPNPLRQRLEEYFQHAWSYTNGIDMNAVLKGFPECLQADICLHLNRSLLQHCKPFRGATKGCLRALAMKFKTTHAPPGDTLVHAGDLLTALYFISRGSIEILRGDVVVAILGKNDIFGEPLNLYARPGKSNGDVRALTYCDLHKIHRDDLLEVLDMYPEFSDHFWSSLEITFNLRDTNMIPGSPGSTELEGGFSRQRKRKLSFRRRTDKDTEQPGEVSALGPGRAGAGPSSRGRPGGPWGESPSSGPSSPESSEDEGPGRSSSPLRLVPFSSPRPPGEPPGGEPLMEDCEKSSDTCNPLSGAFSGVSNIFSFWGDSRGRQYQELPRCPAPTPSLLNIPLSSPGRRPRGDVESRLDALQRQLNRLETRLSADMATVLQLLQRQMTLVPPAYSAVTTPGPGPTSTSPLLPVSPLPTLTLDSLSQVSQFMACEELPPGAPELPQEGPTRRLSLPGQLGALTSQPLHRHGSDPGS
row,SMILES,"hERG current change (%, negative = inhibition) at 1uM [%]"
1,CC(=O)c1ccc(N2CCN(C(=O)/C=C/c3cccs3)CC2)cc1,-15.8
2,NC(CCCCCP(=O)(c1ccccc1)c1ccccc1)C(=O)O (centres unmarked),7.93
3,CN(C)c1oc(-c2ccccc2Cl)nc1P(=O)(c1ccccc1)c1ccccc1,11.1
4,N#C/C(=C\c1ccco1)C(=O)Nn1cnnc1,13.7
5,CC1CCC(C(=O)NC(C(=O)NCCCN2CCOCC2)C(C)C)CC1 (centres unmarked),-5.74
6,CN(c1ccc(C(=O)NCCSCc2ccc(Cl)cc2)cc1)S(=O)(=O)c1ccccc1,14.1
7,Cc1ccc(C(=O)CSc2nnc(-c3ccccc3N)n2C)cc1,4.54
8,Nc1nccnc1C(=O)OCC(=O)NNC(=O)c1ccccc1,4.97
9,COc1cccc(CNC(=O)CCC2CCCN(C(=O)c3cc4ccccc4o3)C2)c1 (centres unmarked),-3.08
10,CSc1nc(NCCCN(C)C)c2c3c(sc2n1)CN(C)CC3,4.72
11,Cc1ccc(S(=O)(=O)C(C#N)c2nc3ccccc3nc2N2CC(C)OC(C)C2)cc1C (centres unmarked),11.7
12,Cc1cccc(N2CCN(S(=O)(=O)c3ccc4c(c3)CCC(=O)N4)CC2C)c1 (centres unmarked),-13.4
13,N#Cc1cccc(S(=O)(=O)N2CCN(c3ccnc4cc(Cl)ccc34)CC2)c1,-57.2
14,CC1=C(C(=O)OC(C)C)C(c2ccc3c(c2)OCO3)NC(=O)N1 (centres unmarked),12.5
15,COc1ccc(C(=O)NCc2nnc(SCC(=O)NCCc3ccccc3)o2)cc1,5.65
16,CC(=O)Nc1ccc(NC(=O)C2CCCN2S(=O)(=O)c2cccc(C(F)(F)F)c2)cc1 (centres unmarked),-6.71
17,CCCCC(=O)NC(c1ccc(Cl)cc1Cl)c1ccc2cccnc2c1O (centres unmarked),11.3
18,CCOC(=O)Cc1csc(Nc2c(C)n(C)n(-c3ccccc3)c2=O)n1,3.31
19,CC1=CC(=O)C(C(C)C)=CC1=NC(=O)c1ccc(C)cc1,15.1
20,CN(CCC#N)C(=O)COC(=O)c1ccccc1OCc1ccccc1Cl,6.79
21,COC(=O)C(Cc1c[nH]c2ccccc12)NC(=O)C(C)C (centres unmarked),11.4
22,O=C(Nc1cccc(-c2nc3ccccc3[nH]2)c1)c1cccc(NC(=O)c2ccco2)c1,12.3

row,SMILES,"hERG current change (%, negative = inhibition) at 1uM [%]"
1,Cc1ccccc1OCC(=O)Nc1ccccc1N1CCOCC1,4.24
2,Cc1cc(C)cc(OCC(=O)Nc2cccc(-c3nc4ncccc4o3)c2)c1,11.9
3,COc1ccc(C(=O)NN/C(C)=C/C(=O)C(F)(F)C(F)(F)C(F)(F)F)cc1,5.91
4,CC(C)(C)c1ccc(C(=O)c2c[nH]c(C(=O)NCCCn3ccnc3)c2)cc1,6.02
5,N=c1c(C(=O)NCc2ccc(F)cc2)cc2c(=O)n3ccccc3nc2n1CCCN1CCOCC1,-91.8
6,O=C(COc1cccc2ccccc12)Nc1cc(S(=O)(=O)N2CCOCC2)ccc1N1CCOCC1,-2.09
7,Cc1cc(Br)ccc1SCC(=O)OCC(=O)NCc1ccco1,3.07
8,Cc1ccc(-n2ncc(C(=O)O)c2C2CCN(C(=O)OC(C)(C)C)CC2)cc1,1.61
9,COCC(=O)Nc1nnc(C2CCCCC2)s1,-2.67
10,O=C(CSc1nc2ccccc2c(=O)n1CC1CCCO1)NCCc1ccccc1 (centres unmarked),19.6
11,O=C(NC1CC1)c1ccc2c(c1)C1C3CCC(C3)C1C(c1ccccc1)N2 (centres unmarked),10.2
12,CCC(CC)C(=O)Nc1nnc(S(=O)(=O)Nc2ccccc2C)s1,14.1
13,COCC(C)N1CCC(Oc2ccc(C(=O)N3CCCC3)cc2)CC1 (centres unmarked),10.5
14,O=C(Cn1c(=O)n(CC(=O)N2CCCCC2)c(=O)c2sccc21)NCc1ccccc1,14.8
15,Cc1cc(N=Nc2ccc3ccccc3c2)ccc1O,9.74
16,Cc1ccc2c(ccn3cc4c(c(=O)n(C)c(=O)n4C)c23)c1,9.48
17,O=C(CN1C(=O)NC2(CCCCCC2)C1=O)N1CCN(S(=O)(=O)c2ccccc2)CC1,4.28
18,CCn1c(O)c(N=NC(=O)CNC(=O)c2ccccc2F)c2ccccc21,13.7
19,COc1ccc(CNC(=O)Cn2c(=O)n(CCC(=O)N3CCCCC3)c(=O)c3sccc32)cc1,0.388
20,CN(C)Cc1ccccc1Cc1ccccc1.O=C(O)/C=C\C(=O)O,6.94
21,O=C(Nc1cc2c(cc1Br)OCCCO2)c1ccccc1,-4.84
22,CCOc1ccc(C(=O)Nc2ccc(C(=O)N3CCOCC3)cc2)c(OCC)c1,7.69

row,SMILES,"hERG current change (%, negative = inhibition) at 1uM [%]"
1,Cc1ccc(C)c(NC(=S)NNC(=O)c2ccc(Br)o2)c1,1.32
2,O=C(CSc1nnc(-c2ccccc2)n1-c1ccccc1)NCc1ccco1,7.59
3,COC(=O)C1C(=O)CC(C)(O)C(C(=O)OC)C1c1ccccc1F (centres unmarked),13.7
4,CN(CC(=O)Nc1cccc(F)c1)C(=O)c1ccc(S(=O)(=O)N2CCCC2)cc1,7.96
5,O=C(Nc1ccccc1-c1nc2ccccc2s1)c1ccc(Br)o1,15.3
6,CCOc1ccccc1-n1c(COc2ccc(C)cc2)nnc1SCC(N)=O,5.39
7,O=C(/C=C/Nc1ccc(F)cc1F)c1cccs1,18.4
8,Cc1cc(C)c(NC2=NS(=O)(=O)c3ccccc32)c(C)c1,-16.6
9,Cn1c(=O)[nH]c(=O)c2c1nc(N1CCCC1)n2CCCSc1nc2ccccc2o1,10.9
10,CCN1CCCC1CNC(=O)c1cc2c(-c3ccc(Cl)cc3)nn(C)c2s1 (centres unmarked),-21
11,Cc1ccnc(NC(=O)c2ccc(S(=O)(=O)c3ccccc3)cc2)c1,9.76
12,COC(=O)C1=C(C)NC(=O)NC1c1cc(Cl)ccc1OC (centres unmarked),10.7
13,Cc1nnc(SCC(=O)N2CCCCC2)s1,5.2
14,COc1cc(C=O)ccc1Oc1cnccn1,12.2
15,O=C(CCN1C(=O)C2C3CC(C(Br)C3Br)C2C1=O)OCC(=O)c1cccc([N+](=O)[O-])c1 (centres unmarked),25.7
16,CCOC(=O)[C@@H]1[C@H]2COc3ccccc3[C@@H]2N2C(=O)N(c3ccc(Cl)cc3)C(=O)[C@]12C,12.9
17,O=c1c2ccccc2nc(-c2cccs2)n1-c1cnccn1,8.53
18,O=C(NC1CCCC1)C(c1ccccn1)N(C(=O)c1csnn1)C1CCCCC1 (centres unmarked),0.749
19,CC(C)(O)C(=O)N=Nc1c(O)[nH]c2ccccc12,19
20,COc1ccccc1N1CCN(C(=O)CCCCn2c(=O)[nH]c3ccsc3c2=O)CC1,-1.62
21,O=C(O/N=C\c1ccc(N2CCOCC2)c([N+](=O)[O-])c1)c1ccc(F)cc1,-2.21
22,O=C(Nc1ccccc1N1CCOCC1)c1cccc(Oc2ccccc2)c1,7.46

row,SMILES,"hERG current change (%, negative = inhibition) at 1uM [%]"
1,CCN(C(=O)CSc1nnc(COc2cccc(C)c2)o1)c1nc(C)cs1,11.7
2,Cc1cc(-n2c(C)cc(C(=O)CSc3[nH]c(=O)cc(C(F)(F)F)c3C#N)c2C)no1,8.5
3,CCOC(=O)NN=C1c2ccccc2-c2ccccc21,11.8
4,Cc1ccccc1Nc1nc(N)nc(CCl)n1,17.9
5,Oc1ccc(/C=N/Nc2ccc3ccccc3c2)c(O)c1,4.75
6,C=CCNCCOc1ccc(C(C)(C)c2ccccc2)cc1.O=C(O)C(=O)O,5.47
7,COC(=O)c1c(NS(=O)(=O)Cc2ccccc2)sc2c1CCCC2,6.69
8,Cc1nonc1C1CCCN1C(=O)c1cc(COc2ccc(F)cc2Cl)on1 (centres unmarked),8.74
9,Cc1c(Br)c(=O)[nH]c(=O)n1COCc1ccccc1,0.16
10,CC(C)NC(=S)N1CCCN(c2ncccc2[N+](=O)[O-])CC1,17.3
11,Cc1ccc(C(=O)N[C@H](C(=O)Nc2ccc(F)cc2)C(C)C)cc1,17.2
12,O=C(Nc1ccc2nc3n(c(=O)c2c1)CCCCC3)c1ccccc1[N+](=O)[O-],14.6
13,COc1c(O)ccc2c1-c1c3c(cc4c1C(C2)N(C)CC4)OCO3 (centres unmarked),-0.891
14,CCN(CC)CCCNC(=O)/C=C/C(=O)O,4.16
15,CC1=CC(=O)OC2CC3OC4C[C@@H](C)C5OC6CC7O[C@]8(C)C/C=C\C9OC%10CC%11OC(CC(C)CO)CC(O)[C@]%11(C)OC%10CC9OC8C[C@]7(C)O[C@]6(C)CCC5OC4C[C@]3(C)OC12 (some centres unmarked),16.6
16,COc1ccccc1N(C)S(=O)(=O)c1ccc(C(=O)Nc2ccc3nc(C)sc3c2)cc1,14.4
17,COc1ccc(C(C#N)N2CCCCCC2)cc1OC (centres unmarked),9.04
18,Cc1ccc(C(=O)N2CCN(c3ncc(C(F)(F)F)cc3Cl)CC2)s1,-10.9
19,Cc1ccc(C(=O)N2CC(C)SC2=Nc2cccc(S(=O)(=O)N(C)C)c2)cc1 (centres unmarked),8.74
20,O=C1OC(NC(=O)c2ccccc2)C(n2cc(CO)nn2)=C1Cl (centres unmarked),-3.22
